Results taken from PubChem BioAssay (NCI).
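A five-concentration, 48-hour dose response in 96-well plates underlies each endpoint, interpolated linearly between surrounding concentrations. GI50 is the concentration that inhibits growth by half. TGI is the concentration that stops growth completely.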

These molecules were tested on NCI-H322M lung (assay: inhibition of tumour cell growth, NCI panel, 48 h).
For c1ccc(-c2c(-c3ccccc3)[n+](Cc3ccc4ccccc4c3)c(-c3ccc(-c4nc5ccccc5s4)cc3)n2Cc2ccc3ccccc3c2)cc1, the GI50 was 0.327 µM and the TGI was 1.34 µM.
Clc1cccc(-c2sc(-c3cccs3)cc2Cc2cccs2)c1 was tested, and the TGI was > 10 µM.
With COC(=O)/C=C(\C)CC/C=C(\C)CCC1OC1(C)C (configuration not stated) the TGI was > 75 µM.
With Cn1c2ccccc2c2ccc3c(c21)C(=O)c1ccc2c4ccccc4n(C)c2c1C3=O the TGI was > 100 µM.
In the case of O=C(O)c1nc2ccc(C(F)(F)F)cc2[nH]c1=O, the TGI is reported as > 100 µM.
For COc1cc(Nc2cnc3ccc(C(F)(F)F)cc3n2)cc(OC)c1OC, the TGI was > 100 µM.
